This is one part of the list.
Tests used:
Assay in all cases: glycan array binding signal (z-score within array); higher = stronger binding
Conditions in all cases: glycan notation: IUPAC condensed, linker removed
[1] = target: GlcNAc(a1-3)Gal(b1-4)GlcNAc
Method in brief: (§1)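 The binding signal is a Z-score computed within each array. Data were drawn from 3228 arrays in the Consortium for Functional Glycomics database, restricted to those with a known protein sequence. Scores were averaged over arrays of the same protein sequence at different concentrations or buffers, and over linkers, and negative values can be taken as non-binding.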

[2] = target: GlcNAc(a1-4)Gal(b1-3)GlcNAc
Method in brief: as §1

[3] = target: GlcNAc(a1-4)Gal(b1-4)GalNAc
Method in brief: as §1

[4] = target: GlcNAc(a1-4)Gal(b1-4)GlcNAc
Method in brief: as §1

[5] = target: GlcNAc(a1-4)Gal(b1-4)GlcNAc(b1-3)Gal(b1-4)Glc
Method in brief: as §1

[6] = target: GlcNAc(a1-4)Gal(b1-4)GlcNAc(b1-3)Gal(b1-4)GlcNAc
Method in brief: as §1

[7] = target: GlcNAc(a1-4)Gal(b1-4)GlcNAc(b1-3)Gal(b1-4)GlcNAc(b1-3)Gal(b1-4)GlcNAc
Method in brief: as §1

[8] = target: GlcNAc(a1-4)Gal(b1-4)GlcNAc(b1-3)Gal(b1-4)[Fuc(a1-3)]GlcNAc(b1-3)Gal(b1-4)[Fuc(a1-3)]GlcNAc
Method in brief: as §1

[9] = target: GlcNAc(a1-6)Gal(b1-4)GlcNAc
Method in brief: as §1

[10] = target: GlcNAc(b1-2)Gal(b1-3)GalNAc
Method in brief: as §1

[11] = target: GlcNAc(b1-2)Gal(b1-3)GlcNAc
Method in brief: as §1

[12] = target: GlcNAc(b1-2)Man(a1-3)[GlcNAc(b1-2)Man(a1-6)]Man(b1-4)GlcNAc(b1-4)GlcNAc
Method in brief: as §1

[13] = target: GlcNAc(b1-2)Man(a1-3)[GlcNAc(b1-2)Man(a1-6)]Man(b1-4)GlcNAc(b1-4)[Fuc(a1-6)]GlcNAc
Method in brief: as §1

[14] = target: GlcNAc(b1-2)Man(a1-3)[GlcNAc(b1-4)][GlcNAc(b1-2)Man(a1-6)]Man(b1-4)GlcNAc(b1-4)GlcNAc
Method in brief: as §1

[15] = target: GlcNAc(b1-2)Man(a1-3)[GlcNAc(b1-4)][GlcNAc(b1-2)Man(a1-6)]Man(b1-4)GlcNAc(b1-4)[Fuc(a1-6)]GlcNAc
Method in brief: as §1

[16] = target: GlcNAc(b1-2)[GlcNAc(b1-4)]Man(a1-3)[GlcNAc(b1-2)Man(a1-6)]Man(b1-4)GlcNAc(b1-4)GlcNAc
Method in brief: as §1

[17] = target: GlcNAc(b1-2)[GlcNAc(b1-4)]Man(a1-3)[GlcNAc(b1-4)][GlcNAc(b1-2)Man(a1-6)]Man(b1-4)GlcNAc(b1-4)GlcNAc
Method in brief: as §1

[18] = target: GlcNAc(b1-2)[GlcNAc(b1-4)]Man(a1-3)[GlcNAc(b1-4)][GlcNAc(b1-2)[GlcNAc(b1-6)]Man(a1-6)]Man(b1-4)GlcNAc(b1-4)GlcNAc
Method in brief: as §1

[19] = target: GlcNAc(b1-2)[GlcNAc(b1-4)]Man(a1-3)[GlcNAc(b1-4)][GlcNAc(b1-2)[GlcNAc(b1-6)]Man(a1-6)]Man(b1-4)GlcNAc(b1-4)[Fuc(a1-6)]GlcNAc
Method in brief: as §1

[20] = target: GlcNAc(b1-2)[GlcNAc(b1-6)]Man(a1-6)[GlcNAc(b1-2)Man(a1-3)]Man(b1-4)GlcNAc(b1-4)GlcNAc
Method in brief: as §1

[21] = target: GlcNAc(b1-2)[GlcNAc(b1-6)]Man(a1-6)[GlcNAc(b1-2)Man(a1-3)]Man(b1-4)GlcNAc(b1-4)[Fuc(a1-6)]GlcNAc
Method in brief: as §1

[22] = target: GlcNAc(b1-2)[GlcNAc(b1-6)]Man(a1-6)[GlcNAc(b1-4)][GlcNAc(b1-2)Man(a1-3)]Man(b1-4)GlcNAc(b1-4)GlcNAc
Method in brief: as §1

GlcNAc(b1-3)Fuc = target: GlcNAc(b1-3)Fuc
Method in brief: as §1

GlcNAc(b1-3)Gal = target: GlcNAc(b1-3)Gal
Method in brief: as §1

[23] = target: GlcNAc(b1-3)Gal(b1-3)GalNAc
Method in brief: as §1

GlcNAc(b1-3)Gal(b1-4)Glc = target: GlcNAc(b1-3)Gal(b1-4)Glc
Method in brief: as §1

[24] = target: GlcNAc(b1-3)Gal(b1-4)GlcNAc
Method in brief: as §1

[25] = target: GlcNAc(b1-3)Gal(b1-4)GlcNAc(b1-2)Man(a1-3)[GlcNAc(b1-3)Gal(b1-4)GlcNAc(b1-2)Man(a1-6)]Man(b1-4)GlcNAc(b1-4)GlcNAc
Method in brief: as §1

[26] = target: GlcNAc(b1-3)Gal(b1-4)GlcNAc(b1-2)Man(a1-3)[GlcNAc(b1-3)Gal(b1-4)GlcNAc(b1-2)Man(a1-6)]Man(b1-4)GlcNAc(b1-4)[Fuc(a1-6)]GlcNAc
Method in brief: as §1

[27] = target: GlcNAc(b1-3)Gal(b1-4)GlcNAc(b1-2)[GlcNAc(b1-3)Gal(b1-4)GlcNAc(b1-6)]Man(a1-6)[GlcNAc(b1-3)Gal(b1-4)GlcNAc(b1-2)Man(a1-3)]Man(b1-4)GlcNAc(b1-4)GlcNAc
Method in brief: as §1

[28] = target: GlcNAc(b1-3)Gal(b1-4)GlcNAc(b1-3)Gal(b1-4)GlcNAc
Method in brief: as §1

[29] = target: GlcNAc(b1-3)Gal(b1-4)GlcNAc(b1-3)Gal(b1-4)GlcNAc(b1-2)Man(a1-3)[GlcNAc(b1-3)Gal(b1-4)GlcNAc(b1-3)Gal(b1-4)GlcNAc(b1-2)Man(a1-6)]Man(b1-4)GlcNAc(b1-4)GlcNAc
Method in brief: as §1

[30] = target: GlcNAc(b1-3)Gal(b1-4)GlcNAc(b1-3)Gal(b1-4)GlcNAc(b1-2)Man(a1-3)[GlcNAc(b1-3)Gal(b1-4)GlcNAc(b1-3)Gal(b1-4)GlcNAc(b1-2)Man(a1-6)]Man(b1-4)GlcNAc(b1-4)[Fuc(a1-6)]GlcNAc
Method in brief: as §1

[31] = target: GlcNAc(b1-3)Gal(b1-4)GlcNAc(b1-3)Gal(b1-4)GlcNAc(b1-2)[GlcNAc(b1-3)Gal(b1-4)GlcNAc(b1-3)Gal(b1-4)GlcNAc(b1-6)]Man(a1-6)[GlcNAc(b1-3)Gal(b1-4)GlcNAc(b1-3)Gal(b1-4)GlcNAc(b1-2)Man(a1-3)]Man(b1-4)GlcNAc(b1-4)[Fuc(a1-6)]GlcNAc
Method in brief: as §1

[32] = target: GlcNAc(b1-3)Gal(b1-4)GlcNAc(b1-3)Gal(b1-4)GlcNAc(b1-3)Gal(b1-4)GlcNAc(b1-2)Man(a1-3)[GlcNAc(b1-3)Gal(b1-4)GlcNAc(b1-3)Gal(b1-4)GlcNAc(b1-3)Gal(b1-4)GlcNAc(b1-2)Man(a1-6)]Man(b1-4)GlcNAc(b1-4)GlcNAc
Method in brief: as §1

[33] = target: GlcNAc(b1-3)Gal(b1-4)GlcNAc(b1-3)Gal(b1-4)GlcNAc(b1-3)Gal(b1-4)GlcNAc(b1-2)Man(a1-3)[GlcNAc(b1-3)Gal(b1-4)GlcNAc(b1-3)Gal(b1-4)GlcNAc(b1-3)Gal(b1-4)GlcNAc(b1-2)Man(a1-6)]Man(b1-4)GlcNAc(b1-4)[Fuc(a1-6)]GlcNAc
Method in brief: as §1

[34] = target: GlcNAc(b1-3)Gal(b1-4)GlcNAc(b1-3)Gal(b1-4)GlcNAc(b1-3)Gal(b1-4)GlcNAc(b1-2)[GlcNAc(b1-3)Gal(b1-4)GlcNAc(b1-3)Gal(b1-4)GlcNAc(b1-3)Gal(b1-4)GlcNAc(b1-6)]Man(a1-6)[GlcNAc(b1-3)Gal(b1-4)GlcNAc(b1-3)Gal(b1-4)GlcNAc(b1-3)Gal(b1-4)GlcNAc(b1-2)Man(a1-3)]Man(b1-4)GlcNAc(b1-4)[Fuc(a1-6)]GlcNAc
Method in brief: as §1

[35] = target: GlcNAc(b1-3)Gal(b1-4)GlcNAc(b1-3)Gal(b1-4)GlcNAc(b1-3)Gal(b1-4)GlcNAc(b1-3)Gal(b1-4)GlcNAc(b1-2)Man(a1-3)[GlcNAc(b1-3)Gal(b1-4)GlcNAc(b1-3)Gal(b1-4)GlcNAc(b1-3)Gal(b1-4)GlcNAc(b1-3)Gal(b1-4)GlcNAc(b1-2)Man(a1-6)]Man(b1-4)GlcNAc(b1-4)GlcNAc
Method in brief: as §1

[36] = target: GlcNAc(b1-3)Gal(b1-4)GlcNAc(b1-3)Gal(b1-4)GlcNAc(b1-3)Gal(b1-4)GlcNAc(b1-3)Gal(b1-4)GlcNAc(b1-2)Man(a1-3)[GlcNAc(b1-3)Gal(b1-4)GlcNAc(b1-3)Gal(b1-4)GlcNAc(b1-3)Gal(b1-4)GlcNAc(b1-3)Gal(b1-4)GlcNAc(b1-2)Man(a1-6)]Man(b1-4)GlcNAc(b1-4)[Fuc(a1-6)]GlcNAc
Method in brief: as §1

[37] = target: GlcNAc(b1-3)Gal(b1-4)GlcNAc(b1-3)Gal(b1-4)GlcNAc(b1-3)Gal(b1-4)GlcNAc(b1-3)Gal(b1-4)GlcNAc(b1-2)[GlcNAc(b1-3)Gal(b1-4)GlcNAc(b1-3)Gal(b1-4)GlcNAc(b1-3)Gal(b1-4)GlcNAc(b1-3)Gal(b1-4)GlcNAc(b1-6)]Man(a1-6)[GlcNAc(b1-3)Gal(b1-4)GlcNAc(b1-3)Gal(b1-4)GlcNAc(b1-3)Gal(b1-4)GlcNAc(b1-3)Gal(b1-4)GlcNAc(b1-2)Man(a1-3)]Man(b1-4)GlcNAc(b1-4)[Fuc(a1-6)]GlcNAc
Method in brief: as §1

[38] = target: GlcNAc(b1-3)Gal(b1-4)GlcNAc(b1-3)Gal(b1-4)GlcNAc(b1-3)GalNAc
Method in brief: as §1

[39] = target: GlcNAc(b1-3)Gal(b1-4)GlcNAc(b1-3)GalNAc
Method in brief: as §1

[40] = target: GlcNAc(b1-3)Gal(b1-4)GlcNAc(b1-3)[GlcNAc(b1-3)Gal(b1-4)GlcNAc(b1-3)]GalNAc
Method in brief: as §1

[41] = target: GlcNAc(b1-3)Gal(b1-4)GlcNAc(b1-6)[Gal(b1-3)]GalNAc
Method in brief: as §1

[42] = target: GlcNAc(b1-3)Gal(b1-4)GlcNAc(b1-6)[GlcNAc(b1-3)Gal(b1-3)]GalNAc
Method in brief: as §1

B1: OVGAL11 (Ovis aries), AAF64320 (protein)
chain: MDSLPNPYLQSVSLTVCYMVKIKANLLSAFGKNPELQVDFGTGTGQGGNIPFRFWYCDGMVVMNTFTDGSWQKEEKVLTDAFVPGQPFELQFLVLEKEYQVFVKNKPICQFAHRLPLQSVKMLDVRGDIVLTSVDTL
glycan array binding signal (z-score) [1]: -0.18
glycan array binding signal (z-score) [2]: -0.114
glycan array binding signal (z-score) [3]: -0.091
glycan array binding signal (z-score) [4]: -0.112
glycan array binding signal (z-score) [5]: -0.114
glycan array binding signal (z-score) [6]: -0.089
glycan array binding signal (z-score) [7]: -0.09
glycan array binding signal (z-score) [8]: -0.096
glycan array binding signal (z-score) [9]: -0.208
glycan array binding signal (z-score) [10]: -0.088
glycan array binding signal (z-score) [11]: -0.199
glycan array binding signal (z-score) [12]: -0.107
glycan array binding signal (z-score) [13]: -0.067
glycan array binding signal (z-score) [14]: -0.102
glycan array binding signal (z-score) [15]: -0.083
glycan array binding signal (z-score) [16]: -0.102
glycan array binding signal (z-score) [17]: -0.05
glycan array binding signal (z-score) [18]: -0.127
glycan array binding signal (z-score) [19]: -0.055
glycan array binding signal (z-score) [20]: -0.092
glycan array binding signal (z-score) [21]: -0.102
glycan array binding signal (z-score) [22]: -0.09
glycan array binding signal (z-score) (GlcNAc(b1-3)Fuc): -0.084
glycan array binding signal (z-score) (GlcNAc(b1-3)Gal): -0.248
glycan array binding signal (z-score) [23]: -0.127
glycan array binding signal (z-score) (GlcNAc(b1-3)Gal(b1-4)Glc): -0.08
glycan array binding signal (z-score) [24]: -0.346
glycan array binding signal (z-score) [25]: -0.084
glycan array binding signal (z-score) [26]: -0.094
glycan array binding signal (z-score) [27]: -0.045
glycan array binding signal (z-score) [28]: -0.088
glycan array binding signal (z-score) [29]: -0.05
glycan array binding signal (z-score) [30]: -0.053
glycan array binding signal (z-score) [31]: -0.029
glycan array binding signal (z-score) [32]: -0.07
glycan array binding signal (z-score) [33]: -0.053
glycan array binding signal (z-score) [34]: -0.054
glycan array binding signal (z-score) [35]: -0.11
glycan array binding signal (z-score) [36]: -0.045
glycan array binding signal (z-score) [37]: -0.055
glycan array binding signal (z-score) [38]: -0.068
glycan array binding signal (z-score) [39]: -0.046
glycan array binding signal (z-score) [40]: -0.085
glycan array binding signal (z-score) [41]: -0.089
glycan array binding signal (z-score) [42]: -0.04
